# The supplement of paper PMC3334620
# Whole data set: some 33,000 sequences, median “E-score (-0.5 to 0.5)” near -0.036, cut for the highest 2% near 0.37. The list shows a part of the results.
# Target: T1, Yer064c (UniProt P40041)
# T1 sequence: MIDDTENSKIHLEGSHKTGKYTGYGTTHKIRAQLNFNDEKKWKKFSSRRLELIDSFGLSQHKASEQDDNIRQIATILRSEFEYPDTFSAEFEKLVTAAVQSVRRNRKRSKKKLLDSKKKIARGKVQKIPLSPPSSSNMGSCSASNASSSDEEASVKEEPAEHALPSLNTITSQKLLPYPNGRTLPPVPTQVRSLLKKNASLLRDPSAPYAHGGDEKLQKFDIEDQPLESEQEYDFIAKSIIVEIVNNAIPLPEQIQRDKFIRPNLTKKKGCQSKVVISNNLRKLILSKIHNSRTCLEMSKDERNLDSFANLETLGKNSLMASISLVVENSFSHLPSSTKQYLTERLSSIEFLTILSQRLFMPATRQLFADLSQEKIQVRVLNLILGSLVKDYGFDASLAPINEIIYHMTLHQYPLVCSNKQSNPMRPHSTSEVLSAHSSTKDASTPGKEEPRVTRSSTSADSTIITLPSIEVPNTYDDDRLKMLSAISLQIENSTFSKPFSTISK
# Assay: PBM E-score (8-mer binding enrichment) (E-score (-0.5 to 0.5)); higher = stronger / more preferred TF binding; most listed sequences are background and not binding sites
# Details: protein concentration: 200 nM; construct: GST-full length
# In short: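 Bound GST-tagged yeast transcription factors, applied at about 100-200 nM to double-stranded universal all-10-mer Agilent arrays, were detected with fluorescent anti-GST. Scans were normalised with masliner. A modified Wilcoxon-Mann-Whitney statistic, the E-score, was assigned to each ungapped eight-base word pooled with its reverse complement by the Universal PBM Analysis Suite.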
row,Sequence,PBM E-score
1,GCCAGGTA,-0.104
2,AAGATCAC,0.087
3,TATCCGAA,-0.0557
4,CCGGGTTC,-0.171
5,GAGAGCCA,0.132
6,CTAGTTTA,0.0113
7,CGCGCTTA,-0.0228
8,CATTTACA,-0.107
9,ACTCATAT,0.368
10,AAAGTGGA,-0.122
11,AGGACGAG,-0.122
12,GGTTGATA,0.0887
13,GAGAGGCC,-0.238
14,AATTGTGT,-0.0757
15,ACTTGACG,-0.0474
16,AAGGCCTA,-0.272
17,CTTTGCGA,-0.0952
18,ACCCTCTG,-0.0307
19,CGTGTTAG,0.133
20,GAAAGGTC,-0.245
21,GCATGTTA,-0.0671
22,ACGACGTA,-0.0468
23,GCGCAACA,0.0632
24,CCGGTAAC,-0.074
25,ATACGGTG,0.129

row,Sequence,PBM E-score
1,AACTACCT,-0.151
2,ATCAACAA,0.0999
3,ACGATGCC,-0.105
4,CTAAAGCC,-0.0501
5,ATAAGTTG,0.0198
6,AGGAAGTG,-0.0363
7,GTACGTGA,0.148
8,GGCTGAAC,0.0357
9,GCGTCTTA,-0.147
10,ATGAAATG,0.0516
11,CCGACACC,-0.284
12,GTGCGCTA,-0.182
13,AAATAGCT,-0.0477
14,CCCATTTC,-0.194
15,CACGCTTC,-0.138
16,CTGTTCAA,-0.011
17,CTATCATA,-0.0368
18,AAACGACT,0.348
19,TATTTTGA,0.109
20,CAGCATCA,0.00385
21,GCCATTTA,-0.0635
22,GCATGCCA,-0.298
23,ATGGGAAT,-0.277
24,CAAAGGCA,-0.163
25,TCGTCCAA,0.1

row,Sequence,PBM E-score
1,CAAGTTAA,-0.00327
2,ACTATACT,0.0687
3,TTCCCCAA,-0.0573
4,CGGTACCC,-0.0985
5,CCCAGCAG,-0.0621
6,CCGCATGC,-0.139
7,AACTGGCA,-0.0881
8,AACTCAAT,0.191
9,GCGAATAC,-0.0076
10,AACAATGG,-0.0905
11,TAGACAAA,-0.134
12,CCAGGCCA,-0.323
13,AATGTTCG,-0.098
14,CCGTCCCC,-0.107
15,ATCTCTAG,-0.0229
16,ATACTTTA,-0.11
17,CTGCATAC,0.126
18,AGAGCAGG,-0.138
19,TATCGAGA,0.14
20,ACAAGACT,0.37
21,CCCAGGGG,-0.182
22,GGTAGCCA,0.183
23,GGTTGCGA,0.0366
24,CGGGGTTA,-0.0527
25,AATGTTGC,-0.0372

row,Sequence,PBM E-score
1,ATAGCAAT,0.101
2,AAGTTGCG,-0.184
3,CCCGCTCC,-0.293
4,CAGGCACG,0.0423
5,AAGGCCGC,-0.364
6,AGATTGGC,-0.174
7,CTTGATTA,0.303
8,ATAGAGTG,0.00994
9,GGTGGACA,-0.137
10,AAATTCGG,0.0245
11,CTATATCA,-0.0493
12,AAAATGTA,0.00062
13,ACGTTCGA,-0.0758
14,AGATGAAC,-0.0599
15,ATGACCAG,0.127
16,CAGGATAC,-0.121
17,CTGTGTAA,0.211
18,TAGGGAAA,0.0303
19,AATCATAT,0.428
20,GTGACAAC,-0.0512
21,AAGCCTCC,-0.13
22,CTTTCATA,0.0438
23,GAGATGAA,0.0961
24,AAAATAGG,-0.063
25,CCGGCGCC,-0.23

row,Sequence,PBM E-score
1,GCTAGAGA,-0.0643
2,ACGGTTCG,-0.129
3,GAAAGACC,-0.152
4,CGACTCTC,0.381
5,TACACAAA,0.143
6,AACTACAC,0.0443
7,CCGCCAAA,-0.163
8,CCACCCAG,-0.176
9,AATAGCTA,-0.0209
10,GTATGGAA,-0.145
11,GATAGTCA,0.476
12,GCTCTTAA,0.00472
13,GGGGTAGA,-0.0382
14,CCTGTGAA,-0.0194
15,AAAGCATA,-0.0765
16,ATCTATAA,0.058
17,CAGGTACA,-0.0726
18,CATATTCC,-0.148
19,GGGCTCCA,-0.281
20,ATGTACAC,0.0029
21,CCCGGGGC,-0.152
22,CCCTGACG,-0.211
23,GAACCATC,0.252
24,CACGCGGA,-0.0849
25,GACCAAAA,0.0327

row,Sequence,PBM E-score
1,GCGGATAA,-0.0818
2,AACTCAGT,0.0865
3,AGGCCTCC,-0.257
4,ATTGGCTG,-0.157
5,GGATTCAC,0.196
6,TCACCTCA,0.15
7,TATTGTAA,-0.0352
8,CGGCTCAA,0.0472
9,AGCCCTAG,-0.116
10,GCTAACCA,0.178
11,CGTGATGA,0.104
12,CATTAAAA,0.0672
13,ATGCTAAT,-0.0289
14,AAGTCGCT,0.269
15,GGAGGCCC,-0.253
16,CGCCGGGC,-0.251
17,GAGCTTAC,0.0416
18,AAAATCTC,0.016
19,CTTCGAGC,-0.16
20,GCCAAGAC,0.0444
21,CTGACCAC,-0.072
22,ATTCGCCA,0.125
23,CCAAACTC,-0.129
24,AACGCTCG,-0.181
25,CGACCTAC,0.0021

row,Sequence,PBM E-score
1,ACCCGCGC,0.0809
2,GATGGGGC,-0.444
3,GGCCTACA,-0.0963
4,CGGGGAAC,-0.245
5,AAAATCGC,-0.0736
6,CCGTACAG,-0.123
7,GTTACTAA,0.184
8,CTGTTCGC,-0.0145
9,CTGGGGTA,-0.176
10,GCCCACCC,-0.139
11,GTCGGGTA,-0.0525
12,GGGTCTAA,0.0345
13,CTTAGATA,0.0304
14,ATACCGTA,-0.25
15,AATCGCCT,0.199
16,ATGGCCAT,-0.0696
17,GTTGTGAA,-0.00059
18,CTATTGTC,-0.0877
19,ACGGGAAT,-0.0476
20,GATGGAAA,-0.149
21,TCCTCTCA,-0.0954
22,ACCAAGTA,0.022
